Experimental data from publication PMC4336329 (PLoS ONE, 2015).
Hit rate of the full screen: of about 310,000 compounds, about 2,200 (0.71%) showed an effect of 50% or more. The effect is printed as a negative number. The list shows a part of the results.

These compounds were tested against human ether-à-go-go-related gene (hERG) potassium channel (human, UniProt Q12809) (assay: primary screen, population patch clamp on CHO cells stably expressing hERG).
Sequence of human ether-à-go-go-related gene (hERG) potassium channel (Q12809 whole entry, looked up): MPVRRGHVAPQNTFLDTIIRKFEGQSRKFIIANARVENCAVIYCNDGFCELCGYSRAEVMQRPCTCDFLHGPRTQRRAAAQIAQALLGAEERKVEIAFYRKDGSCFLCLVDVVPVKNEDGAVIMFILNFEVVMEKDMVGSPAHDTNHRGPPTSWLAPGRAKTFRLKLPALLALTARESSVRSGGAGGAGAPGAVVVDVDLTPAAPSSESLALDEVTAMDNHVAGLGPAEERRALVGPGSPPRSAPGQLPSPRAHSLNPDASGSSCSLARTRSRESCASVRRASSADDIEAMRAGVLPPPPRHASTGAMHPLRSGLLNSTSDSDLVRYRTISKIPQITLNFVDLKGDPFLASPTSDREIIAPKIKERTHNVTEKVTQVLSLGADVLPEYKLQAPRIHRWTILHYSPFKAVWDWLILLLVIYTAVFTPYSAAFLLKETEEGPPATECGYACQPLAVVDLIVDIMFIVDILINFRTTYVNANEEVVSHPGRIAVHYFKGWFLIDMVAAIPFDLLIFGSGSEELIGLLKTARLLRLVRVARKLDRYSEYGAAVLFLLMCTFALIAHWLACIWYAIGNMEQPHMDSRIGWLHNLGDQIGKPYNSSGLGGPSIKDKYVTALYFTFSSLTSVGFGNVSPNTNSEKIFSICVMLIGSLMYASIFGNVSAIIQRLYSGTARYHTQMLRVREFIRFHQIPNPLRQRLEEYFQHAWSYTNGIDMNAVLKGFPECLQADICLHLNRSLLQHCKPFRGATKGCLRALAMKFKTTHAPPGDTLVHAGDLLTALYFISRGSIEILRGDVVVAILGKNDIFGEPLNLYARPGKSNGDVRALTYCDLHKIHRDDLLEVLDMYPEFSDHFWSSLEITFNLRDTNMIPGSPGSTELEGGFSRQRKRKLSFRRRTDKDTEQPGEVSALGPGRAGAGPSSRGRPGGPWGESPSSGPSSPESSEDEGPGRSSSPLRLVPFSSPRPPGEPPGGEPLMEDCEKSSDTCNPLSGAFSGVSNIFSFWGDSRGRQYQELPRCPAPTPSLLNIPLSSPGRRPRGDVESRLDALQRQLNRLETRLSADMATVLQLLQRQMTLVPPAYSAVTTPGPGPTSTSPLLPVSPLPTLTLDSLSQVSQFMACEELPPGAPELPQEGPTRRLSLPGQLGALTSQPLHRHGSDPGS

SMILES	hERG current change (%, negative = inhibition) at 1uM
CCOc1ccc(C(=O)Nc2cc(=O)n(C)c(=O)n2C)cc1	14.6%
COc1ccc(N2CCN(C(=O)CCn3nnc4ccccc43)CC2)cc1	6.1%
Cc1cc(C)n2nc(C(=O)NCC(=O)Nc3ccc(F)c(F)c3)nc2n1	9.22%
CCc1nn(CCCC(=O)N2CCC(C)CC2)c(=O)c2cc3occc3n12	9.11%
Cc1ccsc1C(=O)Nc1cccc(S(=O)(=O)N(C)C)c1	-2.19%
Cn1c(=O)cc(SCC(=O)N2CCN(C(=O)c3ccco3)CC2)c2ccccc21	12.6%
Cc1ccc(N(CC(=O)NC2CCCCC2)C(=O)CNC(=O)c2cccs2)cc1	8.05%
CCOc1ccc2ccccc2c1C(=O)N1CCN(c2ccccc2)CC1	-7.74%
O=C1N=c2ccccc2=C1c1sc(=O)[nH]c1O	15%
Cn1cc(Br)c(C(=O)n2cc(Br)cn2)n1	11.5%
CCOCCn1c(COc2ccc(C)cc2)nc2ccccc21	-16.9%
CC(=O)Nc1ccc(NC(=O)CSc2nnc(COc3ccccc3C)n2CC2CCCO2)cc1 (centres unmarked)	8.16%
CCn1c(O)c(N=NC(=O)c2cccs2)c2ccccc21	16.6%
O=C(O)CC(c1ccccc1)N1C(=O)c2ccccc2C1=O (centres unmarked)	9.6%
COC(=O)c1sccc1NC(=O)c1cc(C)on1	1.8%
Cc1c(CN2CCC(CO)(CCOc3ccccc3)CC2)c(=O)n(-c2ccccc2)n1C	10.5%
O=[N+]([O-])c1cccc(S(=O)(=O)c2ccc(NCCO)c([N+](=O)[O-])c2)c1	-4.72%
Cc1cc(C)c(S(=O)(=O)n2c([N+](=O)[O-])cnc2C)c(C)c1	20.1%
COC(=O)c1c(C)[nH]c(C(=O)CN2C(=O)NC3(CCOc4ccccc43)C2=O)c1C (centres unmarked)	11.6%
CCOC(=O)C1(CC)NC(c2ccco2)C2C(=O)N(C)C(=O)C21 (centres unmarked)	16.6%
CCc1ccc(OCC(=O)N/N=C(\C)c2ccc(OC(F)F)cc2)cc1	7.77%
CCCC(=O)Nc1ccc(S(=O)(=O)Nc2cc(C)nc(C)n2)cc1	4.18%
O=C(NN1C(=O)C2C(C1=O)C1C=CC2C12CC2)c1ccccc1Cl (centres unmarked)	13.4%

SMILES	hERG current change (%, negative = inhibition) at 1uM
Cc1ccc2c(C(=O)CN3CC(C)CC(C)C3)c(C)[nH]c2c1 (centres unmarked)	-8.38%
COc1cc(OC)cc(C(=O)NCC(=O)OCC(=O)c2cc(C)n(Cc3ccco3)c2C)c1	6.92%
CCOc1ccccc1CNC(=O)CCCc1cn(C)c2ccccc12	18.4%
CCn1c(-c2ccccc2O)n[nH]c1=S	19.6%
O=c1oc(-c2ccc([N+](=O)[O-])cc2)nc2ccccc12	9.11%
CCOC(=O)NC1(NC2CCCCC2)Oc2ccccc2O1	9.56%
CCOC(=O)CNC(=O)N1CCCC(CNS(=O)(=O)Cc2ccccc2)C1 (centres unmarked)	5.98%
COc1cccc2[nH]c(C(=O)NCC3CCCO3)cc12 (centres unmarked)	12.5%
COc1nc(N(C)C)nc(N(C#N)S(=O)(=O)c2ccc(C)cc2)n1	13.4%
Cc1ccc(C)c(S(=O)(=O)N2CCCC2CNC(=O)C(=O)NCc2ccccn2)c1 (centres unmarked)	3.03%
CN1CSC(=S)N(C)C1	10.9%
CCOc1ccc(N/C(N)=N/c2nc(CSc3nnnn3-c3ccccc3)cc(=O)[nH]2)cc1	-7.73%
Cc1ccc(SCCSc2ncccn2)cc1	19.1%
O=C(COC(=O)CNC(=O)C12CC3CC(CC(C3)C1)C2)NC1CCS(=O)(=O)C1 (centres unmarked)	7.84%
O=C(CN1CCN(c2ccccc2)CC1)Nc1ccc2c(c1)CCC2	9.04%
COc1cccc(CN(C)C(=O)c2cc(COc3ccc(-n4cncn4)cc3)on2)c1	-29.2%
CCCc1nc2ccccc2c(=O)n1/N=C/c1ccccc1O	12.9%
Cc1ccc(SCCSc2nc(C)cc(=O)[nH]2)cc1	14.5%
COc1cc(OC)cc(C(=O)N2CCN(Cc3ccccc3C(F)(F)F)CC2)c1	-2.54%
Brc1cnc2nc(SC/C=C/c3ccccc3)[nH]c2c1	5.97%
CCOc1ccccc1C(=O)N(Cc1sccc1C)C1CCS(=O)(=O)C1 (centres unmarked)	-2.97%
O=C(NCc1cccc(Cl)c1)c1cccc(S(=O)(=O)N2CCCCC2)c1	12.6%
Cc1cc(S(=O)(=O)N2CCCC(C(=O)Nc3ccc(C(=O)O)cc3)C2)ccc1Cl (centres unmarked)	10.7%

SMILES	hERG current change (%, negative = inhibition) at 1uM
Cc1cc(C)n(-c2ccn(Cc3ccc(Cl)cc3Cl)c(=O)n2)n1	6.63%
CCC(C)Nc1nc(-c2c[nH]c3ccccc23)cs1 (centres unmarked)	10.7%
CN(Cc1nc(-c2cccs2)no1)CC1(N2CCOCC2)CCCCC1	-3.92%
COc1cc(N2CN=c3s/c(=C\c4ccccn4)c(=O)n3C2)cc(OC)c1OC	6.9%
CCCN(CC(=O)Nc1ccccc1C)C(=O)CCCc1c[nH]c2ccccc12	7.67%
COc1ccccc1NS(=O)(=O)c1ccc(N/N=C/C=C/c2ccccc2[N+](=O)[O-])c([N+](=O)[O-])c1	14.3%
CC1(C)CC(=O)C=C(c2cccc3c2oc2ccccc23)C1	11.8%
CC1(C)C(=O)Nc2ccccc2N1C(=O)COC(=O)CNS(=O)(=O)c1ccc(F)c(F)c1F	5.83%
Cc1ccc(NC2CCCN(C(=O)CCC3=NNC(=O)CC3)C2)cc1C (centres unmarked)	19.7%
C=CCN(C(=O)CCC(=O)Nc1cc(C)on1)C(C(=O)NC(C)(C)C)c1cccc(OC)c1OC (centres unmarked)	13.3%
Cc1ccsc1/C=C(\C#N)C(=O)NCCCN1CCOCC1	8.66%
CCN(CC)S(=O)(=O)c1ccc(Cl)c(NC(C)=O)c1	9%
O=C(NCc1ccc(Cl)cc1)c1cc(-c2cccs2)on1	-4.35%
Cc1cccc(NC(=S)NC(=O)c2cc(-c3ccccc3)nc3ccccc23)c1	3.91%
c1cc(C2CCCCC2)ccc1Oc1nc(N2CCOCC2)nc(N2CCOCC2)n1	10.8%
CCOC(=O)C1CCN(C(=O)Nc2ccc(OC)c(OC)c2)CC1	5.42%
Cc1ccc(-c2c3c(nc4sc(C(N)=O)c(N)c24)CCC3)cc1	2.41%
COc1ccccc1N1CCN(C(=O)c2cccc(N3C(=O)NC4CC3(C)Oc3ccccc34)c2)CC1 (centres unmarked)	12.5%
O=c1[nH]c2ccccc2c2oc(CCl)nc12	10.7%
O=C(CSc1nnc(-c2cc3ccccc3cc2O)n1Cc1ccco1)N1CCc2ccccc2C1	10.1%
Br.COCCNc1nc2ccccc2n1CC(=O)c1ccc(OC)c(OC)c1	9.18%
Cc1cc(C)nc(NC2=NCCN2C(=S)Nc2ccc(C)c(C)c2)n1	12.5%
CCOc1ccc(OCC)c(S(=O)(=O)N2CCC(C)CC2)c1	-13.4%

SMILES	hERG current change (%, negative = inhibition) at 1uM
Cc1cc(C(=O)CCC(=O)NCC2COc3ccccc3O2)c(C)s1 (centres unmarked)	-3.81%
COc1ccc(OC)c(Nc2nc(C3CC3)nc3c2nnn3Cc2ccccc2)c1	17.9%
CCN(CCCNC(=O)Cn1ncc2c([nH]c3ccc(C)cc32)c1=O)c1ccccc1	13.1%
COC(=O)C(OC(=O)c1ccccc1)C(C)Br (centres unmarked)	-5.65%
O=c1c2cc(Cl)ccc2nc(-c2ccccc2)n1O	16.7%
CCOC(=O)c1nnc(-c2ccccc2)nc1NC	2.74%
COCCCN1C(=O)C(=O)/C(=C(/O)c2ccc(OC)cc2C)C1c1cccnc1 (centres unmarked)	13.5%
COc1cccc(OCCOc2ccccc2[N+](=O)[O-])c1	4.36%
O=c1[nH]nc(Sc2ncnc3sccc23)n1CCc1ccccc1	-5.11%
Cl.O=C(Nc1cccc(C(F)(F)F)c1)c1cccnc1NCCO	6.06%
O=C(CSc1nc2ccccc2o1)N1CCN(S(=O)(=O)c2ccc3ccccc3c2)CC1	17.9%
COc1cc(/C=N/NC(=O)CCn2nc(C)cc2C)ccc1O	8.93%
O=c1c(-c2ccc3c(c2)OCCO3)coc2cc(O)cc(O)c12	-0.99%
O=C(O)CN(c1cccc(C(F)(F)F)c1)S(=O)(=O)c1ccccc1	6.78%
CCOC(=O)CSc1nnc(Cc2ccccc2)n1Cc1ccco1	5.35%
O=C(COc1ccccc1C(=O)NCC1CCCO1)Nc1ccc(Br)cc1 (centres unmarked)	-2.23%
CCOC(=O)C(Cc1ccc(NC(=O)/C(=C/c2ccccc2)NC(=O)c2ccccc2)cc1)N1C(=O)c2ccccc2C1=O (centres unmarked)	12.9%
CCCCNC(=O)c1[nH]c(C)c(C(C)=O)c1C	13.9%
c1ccc(-c2noc(CCC3CCCC3)n2)cc1	21.1%
O=C(Nc1cc(C(F)(F)F)ccc1N1CCOCC1)c1ccc2ccccc2n1	16%
